# The supplement of paper PMC8728848
# The list shows a part of the results.
# B1: Blon2468mut (Bifidobacterium longum) (protein)
# chain: MTFIKQMMPRYVASMTAGIVAAAMAATCAFAPVANADAVSPTQETIQSTGRHFMVYYRAWRDVTMKGVNTDLPDDNWISMYDIPYGVDVVNIFSYVPSGQEEQAQPFYDKLKSDYAPYLHSRGIKLVRGIDYTGVAVNGFRTFMKEQNKTESEATEADYDAYAKQVIDKYMISVGLDGLDIDMQAHPNDADVKISDNVIRALSKHIGPKSAKPDTTMFLYDTNGSYLNPFKNVAECFDYVAYQQYGSSSDRTARAAADYQPYIGNEFVPGLTFPEEGDMNNRWYDATEPYEESHFYQVASYVREHNLGGMFVYALDRDGRNYDEDLRRIVPSNLLWTKTAIAESEGMALDTAKTAANHYLDRMSLRQVIDDNAASADKARDMVGKAANLYETNKAVLGGDYGEGFSNTYDPTLEAGLLGIDISVLQQQIDKSSEIIGADTAESDAKTALRMARDAAIDGLTGKIYTADQVSAWSQALKAALDATVPVPTPDSTDQNGNRDKVTNHKVQGQPKQLSATGISTDIIVAVGVTLAIAGVALSLSRKLS
# Columns and labels:
# Assay in all cases: glycan array binding signal (z-score within array); higher = stronger binding
# Conditions in all cases: glycan notation: IUPAC condensed, linker removed
# [1] = biological target: Neu5Ac(a2-3)Gal(b1-3)[Fuc(a1-4)]GlcNAc(b1-3)Gal(b1-3)[Fuc(a1-4)]GlcNAc
# Summary of the method: (§1)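 The Consortium for Functional Glycomics database supplied 3228 glycan arrays, of which those lacking an available protein sequence were dropped. The binding signal, a within-array Z-score, was averaged across arrays of the same protein sequence and across linkers. Negative scores can be read as non-binding.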
# [2] = biological target: Neu5Ac(a2-3)Gal(b1-3)[Fuc(a1-4)]GlcNAc(b1-3)Gal(b1-4)[Fuc(a1-3)]GlcNAc
# Summary of the method: as §1
# [3] = biological target: Neu5Ac(a2-3)Gal(b1-3)[GlcNAc(b1-6)]GalNAc
# Summary of the method: as §1
# [4] = biological target: Neu5Ac(a2-3)Gal(b1-3)[Neu5Ac(a2-6)]GalNAc
# Summary of the method: as §1
# [5] = biological target: Neu5Ac(a2-3)Gal(b1-3)[Neu5Ac(a2-6)]GlcNAc(b1-3)[Fuc(a1-3)[Gal(b1-4)]GlcNAc(b1-6)]Gal(b1-4)Glc
# Summary of the method: as §1
# [6] = biological target: Neu5Ac(a2-3)Gal(b1-3)]Neu5Ac(a2-3)Gal(b1-4)]GlcNAc
# Summary of the method: as §1
# [7] = biological target: Neu5Ac(a2-3)Gal(b1-4)Glc
# Summary of the method: as §1
# [8] = biological target: Neu5Ac(a2-3)Gal(b1-4)GlcNAc
# Summary of the method: as §1
# [9] = biological target: Neu5Ac(a2-3)Gal(b1-4)GlcNAc(b1-2)Man
# Summary of the method: as §1
# [10] = biological target: Neu5Ac(a2-3)Gal(b1-4)GlcNAc(b1-2)Man(a1-3)[GlcNAc(b1-4)][Neu5Ac(a2-3)Gal(b1-4)GlcNAc(b1-2)Man(a1-6)]Man(b1-4)GlcNAc(b1-4)GlcNAc
# Summary of the method: as §1
# [11] = biological target: Neu5Ac(a2-3)Gal(b1-4)GlcNAc(b1-2)Man(a1-3)[Neu5Ac(a2-3)Gal(b1-4)GlcNAc(b1-2)Man(a1-6)]Man(b1-4)GlcNAc(b1-4)GlcNAc
# Summary of the method: as §1
# [12] = biological target: Neu5Ac(a2-3)Gal(b1-4)GlcNAc(b1-2)Man(a1-3)[Neu5Ac(a2-3)Gal(b1-4)GlcNAc(b1-2)Man(a1-6)]Man(b1-4)GlcNAc(b1-4)[Fuc(a1-6)]GlcNAc
# Summary of the method: as §1
# [13] = biological target: Neu5Ac(a2-3)Gal(b1-4)GlcNAc(b1-2)Man(a1-3)[Neu5Ac(a2-6)Gal(b1-4)GlcNAc(b1-2)Man(a1-6)]Man(b1-4)GlcNAc(b1-4)GlcNAc
# Summary of the method: as §1
# [14] = biological target: Neu5Ac(a2-3)Gal(b1-4)GlcNAc(b1-2)[Neu5Ac(a2-3)Gal(b1-4)GlcNAc(b1-2)]Man(a1-6)[Neu5Ac(a2-3)Gal(b1-4)GlcNAc(b1-2)Man(a1-3)][GlcNAc(b1-4)]Man(b1-4)GlcNAc(b1-4)GlcNAc
# Summary of the method: as §1
# [15] = biological target: Neu5Ac(a2-3)Gal(b1-4)GlcNAc(b1-2)[Neu5Ac(a2-3)Gal(b1-4)GlcNAc(b1-4)]Man(a1-3)[GlcNAc(b1-4)][Neu5Ac(a2-3)Gal(b1-4)GlcNAc(b1-2)[Neu5Ac(a2-3)Gal(b1-4)GlcNAc(b1-6)]Man(a1-6)]Man(b1-4)GlcNAc(b1-4)GlcNAc
# Summary of the method: as §1
# [16] = biological target: Neu5Ac(a2-3)Gal(b1-4)GlcNAc(b1-2)[Neu5Ac(a2-3)Gal(b1-4)GlcNAc(b1-4)]Man(a1-3)[GlcNAc(b1-4)][Neu5Ac(a2-3)Gal(b1-4)GlcNAc(b1-4)Man(a1-6)]Man(b1-4)GlcNAc(b1-4)GlcNAc
# Summary of the method: as §1
# [17] = biological target: Neu5Ac(a2-3)Gal(b1-4)GlcNAc(b1-2)[Neu5Ac(a2-3)Gal(b1-4)GlcNAc(b1-6)]Man(a1-6)[Neu5Ac(a2-3)Gal(b1-4)GlcNAc(b1-2)Man(a1-3)]Man(b1-4)GlcNAc(b1-4)GlcNAc
# Summary of the method: as §1
# [18] = biological target: Neu5Ac(a2-3)Gal(b1-4)GlcNAc(b1-3)Gal
# Summary of the method: as §1
# [19] = biological target: Neu5Ac(a2-3)Gal(b1-4)GlcNAc(b1-3)Gal(b1-3)GlcNAc
# Summary of the method: as §1
# [20] = biological target: Neu5Ac(a2-3)Gal(b1-4)GlcNAc(b1-3)Gal(b1-4)GlcNAc
# Summary of the method: as §1
# [21] = biological target: Neu5Ac(a2-3)Gal(b1-4)GlcNAc(b1-3)Gal(b1-4)GlcNAc(b1-2)Man(a1-3)[Neu5Ac(a2-3)Gal(b1-4)GlcNAc(b1-3)Gal(b1-4)GlcNAc(b1-2)Man(a1-6)]Man(b1-4)GlcNAc(b1-4)GlcNAc
# Summary of the method: as §1
# [22] = biological target: Neu5Ac(a2-3)Gal(b1-4)GlcNAc(b1-3)Gal(b1-4)GlcNAc(b1-3)Gal(b1-4)GlcNAc
# Summary of the method: as §1
# [23] = biological target: Neu5Ac(a2-3)Gal(b1-4)GlcNAc(b1-3)Gal(b1-4)GlcNAc(b1-3)Gal(b1-4)GlcNAc(b1-2)Man(a1-3)[Neu5Ac(a2-3)Gal(b1-4)GlcNAc(b1-3)Gal(b1-4)GlcNAc(b1-3)Gal(b1-4)GlcNAc(b1-2)Man(a1-6)]GalNAc
# Summary of the method: as §1
# [24] = biological target: Neu5Ac(a2-3)Gal(b1-4)GlcNAc(b1-3)Gal(b1-4)GlcNAc(b1-3)GalNAc
# Summary of the method: as §1
# [25] = biological target: Neu5Ac(a2-3)Gal(b1-4)GlcNAc(b1-3)Gal(b1-4)GlcNAc(b1-3)[Neu5Ac(a2-3)Gal(b1-4)GlcNAc(b1-3)Gal(b1-4)GlcNAc(b1-6)]GalNAc
# Summary of the method: as §1
# [26] = biological target: Neu5Ac(a2-3)Gal(b1-4)GlcNAc(b1-3)Gal(b1-4)GlcNAc(b1-6)[Gal(b1-3)]GalNAc
# Summary of the method: as §1
# [27] = biological target: Neu5Ac(a2-3)Gal(b1-4)GlcNAc(b1-3)Gal(b1-4)[Fuc(a1-3)]GlcNAc
# Summary of the method: as §1
# [28] = biological target: Neu5Ac(a2-3)Gal(b1-4)GlcNAc(b1-3)GalNAc
# Summary of the method: as §1
# [29] = biological target: Neu5Ac(a2-3)Gal(b1-4)GlcNAc(b1-3)[Neu5Ac(a2-3)Gal(b1-4)GlcNAc(b1-6)]GalNAc
# Summary of the method: as §1
# [30] = biological target: Neu5Ac(a2-3)Gal(b1-4)GlcNAc(b1-6)GalNAc
# Summary of the method: as §1
binder,measurement,setting,value
B1,glycan array binding signal (z-score),[1],-0.04
same,glycan array binding signal (z-score),[2],0.065
same,glycan array binding signal (z-score),[3],-0.069
same,glycan array binding signal (z-score),[4],-0.016
same,glycan array binding signal (z-score),[5],-0.071
same,glycan array binding signal (z-score),[6],-0.06
same,glycan array binding signal (z-score),[7],-0.056
same,glycan array binding signal (z-score),[8],-0.062
same,glycan array binding signal (z-score),[9],-0.056
same,glycan array binding signal (z-score),[10],-0.063
same,glycan array binding signal (z-score),[11],-0.062
same,glycan array binding signal (z-score),[12],-0.086
same,glycan array binding signal (z-score),[13],-0.083
same,glycan array binding signal (z-score),[14],-0.033
same,glycan array binding signal (z-score),[15],-0.084
same,glycan array binding signal (z-score),[16],-0.047
same,glycan array binding signal (z-score),[17],-0.048
same,glycan array binding signal (z-score),[18],-0.065
same,glycan array binding signal (z-score),[19],-0.073
same,glycan array binding signal (z-score),[20],-0.072
same,glycan array binding signal (z-score),[21],-0.079
same,glycan array binding signal (z-score),[22],-0.05
same,glycan array binding signal (z-score),[23],-0.005
same,glycan array binding signal (z-score),[24],-0.088
same,glycan array binding signal (z-score),[25],-0.083
same,glycan array binding signal (z-score),[26],-0.044
same,glycan array binding signal (z-score),[27],-0.04
same,glycan array binding signal (z-score),[28],-0.065
same,glycan array binding signal (z-score),[29],-0.05
same,glycan array binding signal (z-score),[30],-0.066
